Experimental data: PubChem BioAssay AID686978 (National Center for Advancing Translational Sciences (NCATS), 2013)
Hit rate of the full screen: of about 420,000 compounds, about 64,000 (15%) were called active. The inconclusive results got no clear call from the source; some entries with a clear call stand among them for comparison. Calls come from the whole dose curve; as a rule, active = well fitted inhibition curve with a large enough effect; inconclusive = small, poorly fitted or top-dose-only effect; inactive = flat fitted curve, though single readings scatter. Potencies of inconclusive entries are left out as doubtful fits.

Test: qHTS for Inhibitors of human tyrosyl-DNA phosphodiesterase 1 (TDP1): qHTS in cells in absence of CPT; note: nearly all actives have a fitted effect of over 55% in size
Settings: DT40 Tdp1-/- hTDP1 cells, no CPT, ATP luminescence, 48 h; activity change, negative = growth inhibition: at 46.2 µM (top of the series) unless noted
Method in brief: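 A cellular qHTS used chicken DT40 cells lacking endogenous Tdp1 but carrying stably transfected human TDP1. Compounds were applied without camptothecin, and cell growth kinetics were judged by ATP-dependent luminescence after ≥48 hr.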
% is set by controls: 0 for no effect and ±100 for the full control effect; potency is the fitted concentration of half-maximal effect; tags give direction and shape of the fitted curve.

| SMILES | Potency | activity change, negative = growth inhibition |
| --- | --- | --- |
| COc1ccc(-c2nc(CN3CCN(c4ccccc4OC)CC3)c(C)o2)cc1 | inconclusive [inhibitor, single point] | – |
| O=C(COC(=O)c1cnccn1)Nc1ccc2c(c1)OCO2 | – | inconclusive: -30.5% [inhibitor] |
| Cc1ccc(OCC(=O)Nc2nnc(S(=O)(=O)N3CCC(C)CC3)s2)cc1 | inactive | – |
| CCCCSCCCNC(=O)c1cn(CC)c2ccc(S(=O)(=O)N(C)C3CCCCC3)cc2c1=O | active: 16.4 µM | – |
| COCCN=C1NN=C(c2ccc(C)c([N+](=O)[O-])c2)CS1 | inconclusive [inhibitor, single point] | – |
| Cc1ccccc1N(C(=O)c1snc(C(N)=O)c1N)C(C(=O)NCC1CCCO1)c1ccc(N(C)C)cc1 (centres undefined) | inconclusive [inhibitor, single point] | – |
| Cc1ccc(-n2c(C)cc(/C=C(\C#N)C(=O)NCC3CCCO3)c2C)cc1 (centres undefined) | inconclusive [inhibitor, single point] | – |
| c1ccc(-c2nc(NCc3ccco3)c3ccccc3n2)nc1 | active: 2.59 µM | – |
| CCc1ccc(N2C(=O)CC(N3CCC(C(=O)OC)CC3)C2=O)cc1 (centres undefined) | inconclusive [inhibitor, single point] | – |
| COc1cccc(C2(CC(=O)N3CCN(c4nonc4C)CC3)CC(=O)N(C3CCCC3)C2=O)c1 (centres undefined) | – | inconclusive: -30.1% [inhibitor] |
| CC1CCc2[nH]c3ccc(C(=O)N(C)CC(=O)Nc4cccc(F)c4)cc3c2C1 (centres undefined) | inconclusive [inhibitor, partial curve] | – |
| CCCn1c(SCC#N)nc2c(c1=O)C1(CCCC1)Cc1ccccc1-2 | inconclusive [inhibitor, partial curve] | – |
| CCOC(=O)c1ccc(NC(=O)CSc2nnc(-c3cccs3)n2C)cc1 | inconclusive [inhibitor, partial curve] | – |
| COc1ccccc1/C=C/C=N/n1c(-c2ccc(Cl)cc2)n[nH]c1=S | active: 16.4 µM | – |
| O=C(CSc1n[nH]c(-c2ccccc2)n1)NC(=O)NCc1ccco1 | inconclusive [inhibitor, single point] | – |
| O=C(Nc1ccccc1N1CCOCC1)c1ccc2nc[nH]c2c1 | inconclusive [inhibitor, single point] | – |
| CCOc1ccccc1NC(=O)Nc1ccccc1OCc1cc(=O)n2ccccc2n1 | inconclusive [inhibitor, single point] | – |
| Cc1noc(NS(=O)(=O)c2ccc(NC(=O)COc3ccccc3Br)cc2)c1C | inconclusive [inhibitor, single point] | – |
| COC(=O)C1=NNC(C(=O)c2ccco2)C1c1ccccc1 (centres undefined) | inconclusive [inhibitor, single point] | – |
| CCc1ccc(C(O)c2ncc(-c3ccc(Cl)cc3)[nH]2)cc1 (centres undefined) | inconclusive [inhibitor, single point] | – |
| CN(C)c1ccc(C(=O)NCc2ccc3c(c2)OCO3)cc1 | inactive | – |
| CCOC(=O)C1(C)CCCN(C(=O)c2cc(C)oc2C)C1 (centres undefined) | inconclusive [inhibitor, single point] | – |

| SMILES | Potency | activity change, negative = growth inhibition |
| --- | --- | --- |
| CC(=O)Nc1ccc(-c2ccnc3c2CC(C(=O)Nc2cccc(Oc4ccccc4)c2)O3)cc1 (centres undefined) | active: 20.6 µM | – |
| CCOC(=O)c1sc2nc(C(C)C)c3c(c2c1N)CC(C)(C)OC3 | inconclusive [inhibitor, partial curve] | – |
| CN(c1ccccc1C(=O)O)S(C)(=O)=O | inactive | – |
| O=C(NCC1CCCO1)c1nn2c(C(F)(F)F)cc(-c3cc(Br)cs3)nc2c1Br (centres undefined) | inconclusive [inhibitor, partial curve] | – |
| COc1ccc(/C=C2\SC(=S)N(CCCC(=O)Nc3ccc(O)cc3)C2=O)cc1 | inconclusive [inhibitor, single point] | – |
| CC(=O)c1c(C)nc2ccc(Br)cc2c1-c1ccccc1 | inconclusive [inhibitor, single point] | – |
| CCOCCCn1c(SCC(=O)Nc2ccccc2)nc2ccccc2c1=O | inconclusive [inhibitor, partial curve] | – |
| Cc1ccc(CCNC(=O)c2ccc(CS(=O)(=O)Cc3ccc(Cl)cc3)o2)cc1 | inconclusive [inhibitor, single point] | – |
| CCNc1nn2ccccc2c1/C=C(\C#N)C(=O)OCC | active: 16.4 µM | – |
| COc1ccc(-c2cnnc(N/N=C/c3ccc(O)c(OC)c3)n2)cc1 | active: 5.17 µM | – |
| O=C(COC(=O)c1cc[n+]([O-])cc1)Nc1ccc(Cl)c(C(F)(F)F)c1 | inactive | – |
| Cc1cc(C=C2C(=O)c3ccccc3C2=O)c(C)n1-c1ccccc1 | inconclusive [inhibitor, partial curve] | – |
| O=C(COC(=O)C1CCC1)NC(=O)c1ccccc1 | inactive | – |
| O=C(NC1CCCCC1)c1ccc(-c2ccccc2F)o1 | inconclusive [inhibitor, single point] | – |
| CN1CCCN(c2ncnc3scc(-c4ccc(F)cc4)c23)CC1 | inconclusive [inhibitor, single point] | – |
| CCOC(=O)NC(NCc1ccccc1)(C(F)(F)F)C(F)(F)F | inactive | – |
| CCOc1ccccc1NC(=O)Cn1c(=O)n(-c2ccc(C)c(C)c2)c(=O)c2c(C)c(C(=O)N(C)C)sc21 | inactive | – |
| CCOc1cc(/C=C2\C(=O)N(c3ccc(C(N)=O)cc3)N=C2C)ccc1OC(=O)c1cccs1 | active: 23.1 µM | – |
| Cc1ccccc1NC(=O)C1CCCN1S(=O)(=O)c1ccccc1C(F)(F)F (centres undefined) | inconclusive [inhibitor, single point] | – |
| CCOC(=S)SCc1cn2ccccc2n1 | inactive | – |
| Cc1ccc(S(=O)(=O)NCCC(=O)N2CCN(c3cccc(Cl)c3)CC2)cc1C | inconclusive [inhibitor, single point] | – |
| COc1cccc(OC)c1C(=O)Nc1nc(COc2ccccc2)cs1 | inconclusive [inhibitor, single point] | – |
